Data as given in paper PMC8095187.
Numbering of substitutions follows the chain as printed. No constants are given. Whether binding was seen depends on the method and setting. Binding seen in cells or lysates may run through a third protein. Some binding calls cover weakened binding; strength is not graded here. Sequences can lack the tags named with a protein. Each block holds one substance with its values, some of them ahead of it.

By UniProt entry, the sequences of proteins in these tests, tags left out. Where a name states a change or a piece, a line headed by the entry shows the natural chain unless it says otherwise.
UniProt Q8BRK8: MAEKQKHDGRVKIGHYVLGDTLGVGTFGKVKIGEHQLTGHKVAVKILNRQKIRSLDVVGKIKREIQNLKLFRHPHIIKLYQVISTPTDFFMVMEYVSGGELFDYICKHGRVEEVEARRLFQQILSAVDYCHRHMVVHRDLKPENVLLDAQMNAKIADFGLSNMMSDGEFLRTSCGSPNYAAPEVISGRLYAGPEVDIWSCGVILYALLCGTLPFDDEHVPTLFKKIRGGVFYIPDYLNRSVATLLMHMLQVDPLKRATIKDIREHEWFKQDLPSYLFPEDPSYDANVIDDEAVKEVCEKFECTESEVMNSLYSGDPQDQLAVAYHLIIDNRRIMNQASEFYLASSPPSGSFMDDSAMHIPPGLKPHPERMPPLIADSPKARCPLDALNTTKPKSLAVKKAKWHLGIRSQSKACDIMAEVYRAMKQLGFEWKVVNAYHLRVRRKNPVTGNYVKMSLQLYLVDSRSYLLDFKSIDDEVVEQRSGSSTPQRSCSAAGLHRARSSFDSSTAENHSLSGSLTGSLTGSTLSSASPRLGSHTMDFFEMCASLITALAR
UniProt Q63610: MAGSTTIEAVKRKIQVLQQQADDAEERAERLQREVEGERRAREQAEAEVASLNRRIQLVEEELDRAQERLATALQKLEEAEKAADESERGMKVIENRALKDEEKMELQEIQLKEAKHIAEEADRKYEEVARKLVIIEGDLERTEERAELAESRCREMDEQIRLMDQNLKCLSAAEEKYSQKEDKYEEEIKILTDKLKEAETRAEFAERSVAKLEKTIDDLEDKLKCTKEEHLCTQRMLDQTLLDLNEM
UniProt P09495: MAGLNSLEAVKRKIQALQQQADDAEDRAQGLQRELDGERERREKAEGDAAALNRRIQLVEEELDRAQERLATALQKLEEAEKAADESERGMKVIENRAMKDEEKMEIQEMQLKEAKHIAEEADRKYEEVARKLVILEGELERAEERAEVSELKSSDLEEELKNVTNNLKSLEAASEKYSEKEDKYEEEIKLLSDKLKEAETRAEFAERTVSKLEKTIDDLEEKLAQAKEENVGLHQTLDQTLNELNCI

Legend:
[1] = biological target: T1, FLAG-Tmod3-WT (expressed in HEK293T) (mouse) (UniProt Q9JHJ0); test: co-IP; HEK293T cells co-expressing FLAG-Tmod3-WT with AMPK-CA or AMPK-DN; pull-down with anti-FLAG M2 affinity gel, immunoblot
T1 sequence: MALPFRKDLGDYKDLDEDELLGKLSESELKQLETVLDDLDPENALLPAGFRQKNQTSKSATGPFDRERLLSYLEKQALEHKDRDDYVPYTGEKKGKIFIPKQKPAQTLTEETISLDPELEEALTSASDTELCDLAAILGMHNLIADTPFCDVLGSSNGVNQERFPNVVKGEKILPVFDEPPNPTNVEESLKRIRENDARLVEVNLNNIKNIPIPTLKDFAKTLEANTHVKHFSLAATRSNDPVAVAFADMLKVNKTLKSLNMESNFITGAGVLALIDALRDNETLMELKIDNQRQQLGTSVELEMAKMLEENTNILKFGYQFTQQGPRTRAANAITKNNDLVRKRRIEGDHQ

[2] = biological target: T2, GST-fused Tmod3-WT (tropomodulin 3, wild type) (mouse) (UniProt Q9JHJ0); test: pull-down; GST-Tmod3-WT on glutathione beads, rocked with HEK293T cell lysate (2 mg protein) expressing Myc-AMPK-WT at 4°C overnight in TNET buffer; blot with anti-Myc; only the target purified
T2 sequence: T1 sequence

[3] = biological target: T3, FLAG-Tmod3-S25D (stably expressed in L6 myoblasts) (mouse) (UniProt Q9JHJ0); test: co-IP; L6 myoblasts stably expressing FLAG-Tmod3-WT or mutants, serum starved 2 hours, with or without 2 mM AICAR for 30 minutes; anti-FLAG M2 affinity gel; blots with antibodies against tropomyosin isoforms
T3 sequence: T1 sequence with S25D

[4] = biological target: T4, FLAG-Tmod3-S25A (stably expressed in L6 myoblasts) (mouse) (UniProt Q9JHJ0); test: as above
T4 sequence: T1 sequence with S25A

[5] = biological target: T5, FLAG-Tmod3-WT (stably expressed in L6 myoblasts) (mouse) (UniProt Q9JHJ0); test: as above
T5 sequence: T1 sequence

- binding [1]: no binding
Substance: Myc-AMPK-α2-DN (kinase inactive, K45R mutation) (from UniProt Q8BRK8 1-552) (enzyme)

- binding [2]: binds
Substance: Myc-AMPK-α2-WT (from UniProt Q8BRK8 1-552) (enzyme)

- binding [3]: binds
- binding [4]: binds
- binding [5]: binds
Substance: Tpm3.1, the shorter form of γTm (tropomyosin) (from UniProt Q63610 1-248)

- binding [5]: no binding
Substance: Tpm4.2 (tropomyosin isoform) (from UniProt P09495 1-248)
